Test results as given in PubChem BioAssay AID1030 (National Center for Advancing Translational Sciences (NCATS), 2008).
Hit rate of the full screen: of about 220,000 compounds, about 16,000 (7.3%) were called active. This list was built around the results that the source calls inconclusive (neither active nor inactive); the mix of calls is not that of the screen. The call rests on the fitted dose curve; in most records, active means well fitted inhibition curve with a large enough effect (not every such curve was filed as active); inconclusive means small, poorly fitted or top-dose-only effect, or another doubt; inactive means no such curve, though single readings can be large or run the other way. Potencies of inconclusive entries are left out as doubtful fits.

What follows are compounds tested against Aldehyde dehydrogenase 1A1 (Homo sapiens) (UniProt P00352) (assay: qHTS Assay for Inhibitors of Aldehyde Dehydrogenase 1 (ALDH1A1)). Conditions: Purified ALDH1A1, NADH fluorescence, propionaldehyde substrate; series mostly up to 75.3 µM; activity, negative = inhibition: at the top concentration.
Potency means the concentration at half of the fitted maximal effect; tags describe the fitted curve by direction and shape.
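Wherever activity, negative = inhibition is given: plate controls were no enzyme wells and a reference inhibitor.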

UniProt P00352, sequence (P00352 whole entry, looked up): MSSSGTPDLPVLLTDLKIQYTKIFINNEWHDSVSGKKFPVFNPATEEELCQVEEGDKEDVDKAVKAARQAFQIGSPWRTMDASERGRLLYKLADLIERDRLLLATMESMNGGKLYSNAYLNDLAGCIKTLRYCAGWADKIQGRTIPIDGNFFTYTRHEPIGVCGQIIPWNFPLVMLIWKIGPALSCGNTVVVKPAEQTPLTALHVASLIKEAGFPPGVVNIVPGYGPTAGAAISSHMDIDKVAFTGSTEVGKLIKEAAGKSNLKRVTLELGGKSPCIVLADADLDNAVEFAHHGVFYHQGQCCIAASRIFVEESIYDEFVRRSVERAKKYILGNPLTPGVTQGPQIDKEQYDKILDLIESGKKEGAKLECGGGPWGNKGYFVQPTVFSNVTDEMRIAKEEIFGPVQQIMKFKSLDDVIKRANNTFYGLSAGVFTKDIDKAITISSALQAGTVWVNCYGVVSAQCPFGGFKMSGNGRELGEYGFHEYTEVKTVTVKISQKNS

SMILES	Potency	activity, negative = inhibition
Cc1ccc(N2CC(C(=O)NCc3ccc(C)n3C)CC2=O)cc1 (stereo not given)	inconclusive [inhibitor, single point]	
COC(=O)c1ccc(C(NC(=O)OCc2ccccc2)/C(F)=C/[C@@H](C)C(=O)N[C@@H](CO)Cc2ccccc2)cc1 (stereo not given in full)		inactive: -5.68%
COc1ccc(C(=O)c2oc3ccccc3c2N)cc1	inconclusive [inhibitor, partial curve]	
COc1ccc(-c2coc3cc4oc(=O)cc(C)c4cc23)cc1F		inactive: -12.7%
CCOC(=O)c1cnc2c(-c3ccccc3)c(C)nn2c1N	inconclusive [inhibitor, single point]	
Cn1nnnc1SCC(=O)Nc1ccccc1Cl		inactive: 9.4%
CC1=C(C(=O)OCc2ccccc2)C(c2ccsc2)C(C#N)=C(N)O1 (stereo not given)	inconclusive [inhibitor, partial curve]	
Cc1ccc(C2C(C(=O)c3ccco3)=C(O)C(=O)N2c2nnc(C)s2)cc1 (stereo not given)		inactive: 1.6%
O=C(Nn1c(Cc2ccccc2)nc2ccccc2c1=O)c1c(O)c2cccc3c2n(c1=O)CCC3	inconclusive [inhibitor, partial curve]	
COc1ccc(C[C@H]2CN3C(=NC[C@@H]3C)N2CCNC(=O)CCC2CCCCC2)cc1	inconclusive [inhibitor, single point]	
COc1cc(OC)c(C#N)c(S(=O)(=O)Cc2ccccc2)c1	inconclusive [inhibitor, single point]	
CCCCCCCC(=O)NNC(=O)c1ccc([N+](=O)[O-])cc1	inconclusive [inhibitor, single point]	
CCOC(=O)C1CCN(C(=O)CSc2nnc(-c3ccco3)n2-c2ccccc2)CC1		inactive: 3.87%
CCC(C)(C)n1nnnc1C(c1cccs1)N1CCc2ccccc21 (stereo not given)	active: 14.1 µM	
Cc1cccc(NC(=O)CSc2nsc(SCC(=O)Nc3cccc(C)c3)c2C#N)c1	inconclusive [inhibitor, single point]	
O=C(c1ccc(-c2ccccc2)cc1)C1CCCN(C(=O)c2ccncc2)C1 (stereo not given)		inactive: 13%
COc1ccc(S(=O)(=O)N(C)C)cc1NCC(=O)Nc1cccc(C#N)c1	active: 20 µM	
CC(C)CNC(=O)C1CCN(c2ccc(S(=O)(=O)N3CCOCC3)cc2Cl)CC1		inactive: 15.7%
CC1CC(C)CN(CCOc2ccccc2-c2ccccc2)C1 (stereo not given)	inconclusive [inhibitor, partial curve]	
CNC(=S)N(Cc1cccs1)Cc1cc2cc(OC)ccc2[nH]c1=O	inconclusive [inhibitor, partial curve]	
COc1ccc(C[C@H](C)NC[C@@H](O)c2ccc(O)c(NC=O)c2)cc1		inactive: 8.3%
COC(=O)c1ccc(COc2ccc(C3C4=C(CCCC4=O)Nc4onc(C)c43)cc2)cc1 (stereo not given)	inconclusive [inhibitor, partial curve]	
C[C@@H]1NC(=O)[C@@H](C)COC(=O)[C@H](C)NC(=O)[C@@H](C)COC1=O		inactive: 15.3% [at 13.5 µM]
COc1ccc(S(=O)(=O)N2CCN(c3ccc4nnc(-c5ccc(F)cc5)n4n3)CC2)cc1	inconclusive [inhibitor, single point]	

SMILES	Potency	activity, negative = inhibition
COc1ccc(/C=N/NC(=O)c2nc(-c3ccccc3)cc(-c3ccccc3)n2)cc1O	inconclusive [inhibitor, single point]	
COc1ccc(CCNC(=O)CCCn2c(SCC#N)nc3ccccc3c2=O)cc1OC		inactive: -5.66%
C[C@@H]1CN(C(=O)c2nc3ccc(Cl)cn3c2CN[C@H]2CCCCNC2=O)C[C@H](C)O1	inconclusive [inhibitor, single point]	
COc1ccc(Cc2nnc(NC(=O)Cn3cnc4c3c(=O)n(C)c(=O)n4C)s2)cc1OC	inconclusive [inhibitor, single point]	
CCOC(=O)c1cc2occc2n1Cc1ccc(F)cc1	inconclusive [inhibitor, single point]	
O=C(COc1ccc(Cl)cc1Cl)OCC(=O)N1CCCc2ccccc21		inactive: 4.3%
COc1ccc(NC(=O)CSc2nc3c(c(=O)n2-c2ccc(F)cc2)SCC3)cc1	inconclusive [inhibitor, single point]	
CN(CC(=O)N1CCCCCC1)S(=O)(=O)c1ccc(Br)s1	inconclusive [inhibitor, partial curve]	
COc1ccc(S(=O)(=O)N2CCCOC2CNC(=O)C(=O)NCCCn2ccnc2)cc1OC (stereo not given)		inactive: -3.07%
COc1ccc(C(C)=O)cc1CSc1nnc(-c2ccc(Cl)cc2)n1-c1ccccc1	active: 10 µM	
Cc1cc(NC(=O)c2noc3c2CCCC3)nn1Cc1ccc(Cl)cc1	inconclusive [inhibitor, partial curve]	
CC(=O)N1C2(C=CC1(C)C(=O)NCc1ccc(C)o1)CCCCC2 (stereo not given)	active: 22.4 µM	
COc1ccc(-c2nc(N3CCOCC3)nc3n[nH]c(N)c23)cc1	inconclusive [inhibitor, single point]	
COC(=O)c1cc(NC(=O)c2ccccc2F)cc(C(=O)OC)c1	inconclusive [inhibitor, full curve]	
CCN1CCN(C(=O)c2cc3nc(-c4ccccc4)cc(C(F)(F)F)n3n2)CC1	inconclusive [inhibitor, single point]	
COc1ccccc1NC(=O)c1nc[nH]c1C(=O)Nc1ccccc1OC	inconclusive [inhibitor, single point]	
CCOCCCNS(=O)(=O)c1ccc(NC(=O)c2ccc(OC)c([N+](=O)[O-])c2)cc1	inconclusive [inhibitor, single point]	
CSCCC(NC(=O)c1cncc(Br)c1)C(=O)O (stereo not given)	inconclusive [inhibitor, single point]	
C=CCN1C(c2ccccc2)=CS/C1=C(/C#N)c1nnc(N2CCOCC2)n1-c1ccccc1	active: 5.62 µM	
O=C(CC1COc2ccccc2O1)NCCc1ccccc1 (stereo not given)		inactive: -15.5%
COCCNC(=O)c1cc2oc3ccccc3c2n1C	inconclusive [inhibitor, partial curve]	
COC(=O)C1=NN(C(=O)c2cccc(Cl)c2)C(O)(C(C)(C)C)C1 (stereo not given)	inconclusive [inhibitor, single point]	
Cc1ccc(S(=O)(=O)N2CCC(C(=O)N3Cc4ccccc4C3)CC2)cc1	inconclusive [inhibitor, partial curve, poor fit]	
CC1(C)CC2CC(C)(CN2C(=O)COC(=O)c2n[nH]c(=O)c3ccccc23)C1 (stereo not given)	inconclusive [inhibitor, single point]	

SMILES	Potency	activity, negative = inhibition
COc1ccc(N=C2SC(CC(=O)Nc3ccccc3OC)C(=O)N2Cc2ccco2)cc1 (stereo not given)		inactive: 9.01%
Cc1noc(C)c1COC(=O)Cc1ccc(Cl)c(Cl)c1		inactive: 8.04%
CCc1ccc(C(C)NC(=O)c2cc(C)oc2C)cc1 (stereo not given)	inconclusive [inhibitor, single point]	
CN(C)/C=N/NC(=O)c1ccc(Cl)cc1		inactive: 11.7%
CC(=O)OC1C([N+]2(C)CCCCC2)C[C@H]2C3CC[C@H]4C[C@H](OC(C)=O)C([N+]5(C)CCCCC5)CC4(C)C3CCC12C (stereo not given in full)		inactive: -0.578%
CCOc1ccccc1N(C(=O)c1snc(C(N)=O)c1N)C(C(=O)NC1CCCC1)c1ccco1 (stereo not given)	inconclusive [inhibitor, single point]	
CC(NC(=O)CCCCCCN1C(=O)c2ccccc2C1=O)c1ccc2c(c1)CCCC2 (stereo not given)	inconclusive [inhibitor, single point]	
CCCNS(=O)(=O)c1ccc(CCC(=O)N2CCN(c3ccc(F)cc3)CC2)cc1	inconclusive [inhibitor, partial curve]	
CCN1C(=O)/C(=C\N(C)C)S/C1=N\S(=O)(=O)c1ccc(C)cc1	inconclusive [inhibitor, partial curve]	
Cn1c(SCc2cc(=O)n3cc(Br)ccc3n2)nnc1C1COc2ccccc2O1 (stereo not given)	inconclusive [inhibitor, partial curve, poor fit]	
O=c1[nH]c2cc3c(cc2cc1CN(Cc1cccnc1)C(=S)NCc1ccco1)OCO3	inconclusive [inhibitor, partial curve]	
Cc1ccc(NC(=O)CSc2ccc(-c3ccccn3)nn2)cc1		inactive: -2.2%
Cc1ccccc1Nc1nnc(SCC(=O)c2cc3ccccc3o2)s1	inconclusive [inhibitor, single point]	
C(=Nc1cccc2c(N=Cc3ccco3)cccc12)c1ccco1	inconclusive [inhibitor, partial curve]	
Fc1cccc2sc(Nc3nc4cc5c(cc4s3)OCCO5)nc12	inconclusive [inhibitor, single point]	
COc1ccc(-c2nc(-c3ccccc3)oc2Nc2c(C)cccc2C)cc1		inactive: 0.775%
Cc1cn([C@H]2C[C@@H](N=[N+]=[N-])[C@@H](CO)O2)c(=O)[nH]c1=O		inactive: -5.59%
Cc1cc(SCC(=O)N(C)C2CCS(=O)(=O)C2)nc2c(C)cccc12 (stereo not given)		inactive: 9.67%
CC(O)Cc1nsc(NC(=O)c2ccc(Br)o2)n1 (stereo not given)		inactive: -0.803%
C/C=C(\CS(=O)(=O)c1ccccc1)S(=O)(=O)c1ccccc1	active: 8.91 µM	
CCc1ccccc1NC(=S)N(Cc1cccc(C)c1)c1cccnc1	inconclusive [inhibitor, single point]	
CCNc1ncc2nc(-c3cc(F)cc(F)c3)c(=O)n(Cc3cccs3)c2n1	inconclusive [inhibitor, single point]	
